Assay results reported in PubChem BioAssay AID504339 (National Center for Advancing Translational Sciences (NCATS), 2011).
The whole screen tested about 390,000 compounds, of which about 17,000 (4.4%) were called active. Inconclusive means that the source gave no clear call. Such entries were picked first, then a sample of the others. Calls come from the whole dose curve; as a rule, active = well fitted inhibition curve with a large enough effect; inconclusive = small, poorly fitted or top-dose-only effect; inactive = no such curve, though single readings can be large or run the other way. Potencies beside an inconclusive call are fits to weak or partial responses and may not hold up.

These molecules were tested against Lysine-specific demethylase 4A (Homo sapiens) (UniProt O75164) (assay: qHTS Assay for Inhibitors of JMJD2A-Tudor Domain). Settings: AlphaScreen JMJD2A-Tudor / H3K4me3 peptide binding; series mostly up to 114 µM.
Note: nearly all actives have a fitted effect of over 50% in size.
Potency is the fitted concentration of half-maximal effect; tags give direction and shape of the fitted curve.

Sequence of UniProt O75164 (O75164 whole entry, looked up, the tested form may be a part): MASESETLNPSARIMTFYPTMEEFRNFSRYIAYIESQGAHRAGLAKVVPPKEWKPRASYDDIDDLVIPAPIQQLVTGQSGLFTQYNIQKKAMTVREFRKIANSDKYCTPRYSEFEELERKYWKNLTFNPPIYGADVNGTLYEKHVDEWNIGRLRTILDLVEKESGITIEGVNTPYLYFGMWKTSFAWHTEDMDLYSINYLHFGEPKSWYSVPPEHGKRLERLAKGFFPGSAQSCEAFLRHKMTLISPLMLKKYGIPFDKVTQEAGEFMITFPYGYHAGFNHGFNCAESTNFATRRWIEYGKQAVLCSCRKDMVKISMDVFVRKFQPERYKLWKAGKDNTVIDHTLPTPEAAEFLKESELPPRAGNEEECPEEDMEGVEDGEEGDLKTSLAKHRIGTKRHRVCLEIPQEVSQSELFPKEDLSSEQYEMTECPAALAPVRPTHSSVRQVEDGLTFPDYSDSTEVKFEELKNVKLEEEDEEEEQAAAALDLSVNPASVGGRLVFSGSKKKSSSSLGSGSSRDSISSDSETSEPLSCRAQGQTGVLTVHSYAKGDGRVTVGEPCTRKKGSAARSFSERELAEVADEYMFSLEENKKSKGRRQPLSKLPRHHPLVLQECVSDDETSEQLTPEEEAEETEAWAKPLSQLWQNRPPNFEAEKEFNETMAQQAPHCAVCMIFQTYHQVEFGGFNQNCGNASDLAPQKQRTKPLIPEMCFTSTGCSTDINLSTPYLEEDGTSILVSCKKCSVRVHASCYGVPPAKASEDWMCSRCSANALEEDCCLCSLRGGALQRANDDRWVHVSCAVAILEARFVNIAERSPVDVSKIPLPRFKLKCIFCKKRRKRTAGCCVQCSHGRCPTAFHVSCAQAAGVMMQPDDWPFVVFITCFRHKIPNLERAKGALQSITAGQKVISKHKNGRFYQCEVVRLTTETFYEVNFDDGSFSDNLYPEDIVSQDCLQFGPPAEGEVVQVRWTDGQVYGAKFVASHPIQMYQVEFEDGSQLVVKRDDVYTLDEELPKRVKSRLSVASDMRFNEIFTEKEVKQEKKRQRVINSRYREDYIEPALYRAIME

Potency, active:
Cc1nc2c(cc1C(=O)N/N=C/c1ccc(O)c(O)c1)c(=O)n(C)c(=O)n2C 35.5 µM
Cc1c(C)[n+](=O)c2c(n1[O-])C(Br)CCC2Br (stereo not given) 79.4 µM
CCOc1ccccc1CN1CCC(O)CC1 5.62 µM
CCCCCCCc1nc2nc(C)c(Br)c(=O)n2[nH]1 28.2 µM
COc1cccc(OC)c1OCCCN1CCOCC1 2.51 µM
S=c1[nH]nc(CSc2nc3ccccc3s2)o1 44.7 µM
CCN(CC)c1ccc(NS(=O)(=O)c2cc3[nH]c(=O)c(=O)[nH]c3cc2C)c(C)c1 44.7 µM
CCCC1Nc2ccc(C(=O)O)cc2C2C=CCC12 (stereo not given) 56.2 µM
O=C(O)c1c2c(nc3ccccc13)/C(=C/c1ccc(O)cc1)CC2 56.2 µM
CCC(=O)NC(c1ccco1)c1cc([N+](=O)[O-])c2cccnc2c1O (stereo not given) 28.2 µM

Potency, inactive:
CCC(C)[C@H](NC(=O)[C@@H]1Cc2ccccc2CN1)C(=O)Nc1ccc2c(c1)OCO2 (stereo not given in full)
Cc1ccc2nc(N3CC(C)OC(C)C3)nc(-c3ccccc3)c2c1 (stereo not given)
CNC(=O)C1C2C=CC3(O2)C1C(=O)N(CCOC)C3C(=O)NCc1ccc(OC)cc1 (stereo not given)
COc1ccc(O)c(C(=O)c2cnn(-c3ccccc3)c2)c1
CCCCc1cc(=O)oc2cc(OCC(=O)Nc3cccnc3)c(Cl)cc12
Cc1[nH]nc(SCC(=O)NCc2ccccc2)c1[N+](=O)[O-]
Cn1c(=O)c2cc(S(=O)(=O)NC(C(=O)Nc3cccnc3)c3ccccc3)ccc2n(C)c1=O (stereo not given)
CC(C#Cc1ccc2c(c1)COc1c3ccccc3nn1-2)OC(C)(C)C (stereo not given)
CC1=C(C(=O)Nc2ccccc2)C(c2cccn2C)n2ncnc2N1 (stereo not given)
Cn1cccc1/C=N/NC(=O)c1cccs1
COc1ccc(OC)c(S(=O)(=O)Nc2cccc(O)c2)c1
O=S(=O)(c1cccs1)N1CCN(Cc2ccccc2)CC1
O=C(NC(=S)Nc1cccc(S(=O)(=O)NC2=NCCC2)c1)c1cc(-c2ccco2)nc2ccccc12
Cc1ccc(C)c(OC(=O)CSc2nnc(CNC(=O)c3ccccc3)o2)c1
C=CCn1cccc(C(=O)Nc2cc(OC)cc(OC)c2)c1=O
Cc1ccc(Cn2c(=N)n(CC(=O)c3ccc([N+](=O)[O-])cc3)c3ccccc32)cc1
COc1cccc(N2CCN(C(=O)Cn3c(-c4cccs4)cc4ccccc43)CC2)c1
O=C(NC1CCCC1)C1CC(O)CN1C(=O)Nc1ccccc1 (stereo not given)
Cc1cnc(=O)[nH]c1SCc1ccc(C(F)(F)F)cc1

Potency, inconclusive:
COc1ccc(C(c2c(C)[nH]n(-c3ccccc3)c2=O)c2c(C)[nH]n(-c3ccccc3)c2=O)cc1OC 12.6 µM [inhibitor, full curve]
COc1ccccc1N1C(=O)S/C(=C\c2cc(C)n(C)c2C)C1=O 15.8 µM [inhibitor, full curve, poor fit]
O=C1c2ccccc2C(=O)N1CCc1c(-c2ccccc2)[nH]c2ccccc12 31.6 µM [inhibitor, full curve]
Cc1ccc(OCC(=O)c2cc(C)n(Cc3ccco3)c2C)c([N+](=O)[O-])n1 63.1 µM [inhibitor, partial curve, poor fit]
CN(C)CCN(Cc1ccco1)C(=O)c1oc2ccccc2c1NC(=O)c1ccccc1 79.4 µM [inhibitor, partial curve]
CCOc1ccc(C(=O)N2CCN(CC(=O)N3CCCC3)CC2)cc1OCC 17.8 µM [inhibitor, single point]
CCOC(=O)C(=NC1CCS(=O)(=O)C1)NNc1ccc(Br)cc1 (stereo not given) 79.4 µM [inhibitor, partial curve]
C[C@@H]1CN([C@@H](C)CO)C(=O)c2cccc(NS(C)(=O)=O)c2O[C@H]1CN(C)CC1CCCCC1 89.1 µM [inhibitor, partial curve]
O=C(C[n+]1cc(-c2ccc(Cl)cc2)n2c1CCC2)Nc1nc(-c2ccccc2)cs1 31.6 µM [inhibitor, partial curve]
C=CCN=C1NN=C(c2cc(C)n(CC=C)c2C)CS1 44.7 µM [inhibitor, partial curve]
Cc1cccc(Nc2c([N+](=O)[O-])cc(C(=O)N3CC(=O)Nc4ccccc43)cc2[N+](=O)[O-])c1 12.6 µM [inhibitor, full curve]
Cc1cc(C)c(C)c(S(=O)(=O)N2CCC(C(=O)NNC(=O)c3ccccc3O)CC2)c1C 89.1 µM [inhibitor, single point]
CCOc1cc(C(c2c(O)nc(SC)[nH]c2=O)c2c(O)nc(SC)[nH]c2=O)ccc1O 79.4 µM [inhibitor, partial curve]
CC(=O)NC(c1cc(Cl)c2cccnc2c1O)C1CC1 (stereo not given) 89.1 µM [inhibitor, partial curve]
CCOc1ccccc1NC(=O)c1cnn2c(C(F)F)cc(-c3ccccc3)nc12 44.7 µM [inhibitor, partial curve]
Cc1ccc(OCC(=O)N(Cc2ccco2)Cc2ccc(C)o2)cc1 63.1 µM [inhibitor, partial curve, poor fit]
COc1ccc(OC)c(CCNC(=O)C(C)n2nc(C)c3c(C)n(-c4ccccc4)nc3c2=O)c1 (stereo not given) 22.4 µM [inhibitor, full curve, poor fit]
Nn1cnnc1N/N=C\c1ccc(-c2ccccc2[N+](=O)[O-])o1 39.8 µM [inhibitor, partial curve, poor fit]
COc1ccc(C)cc1Nc1nc(-c2c[nH]c3ccccc23)cs1 56.2 µM [inhibitor, partial curve]
COc1cccc(C2C(C(=O)c3ccc(C)o3)=C(O)C(=O)N2CCN2CCOCC2)c1OC (stereo not given) 39.8 µM [inhibitor, single point]
CCOc1ccc(NC(=O)C(c2ccccn2)N(C(=O)CCl)c2ccc(F)cc2)cc1 (stereo not given) 100 µM [inhibitor, single point]
Cc1ccc(-n2c(SCC(=O)NCCN3C(=O)CSC3=O)nnc2-c2ccccc2)cc1 100 µM [inhibitor, single point]
C=CCN1CC(=O)N2C(C)c3[nH]c4ccccc4c3C[C@H]2C1=O (stereo not given in full) 35.5 µM [inhibitor, single point]
Cc1c(N2C(=O)c3ccc(F)cc3C2=O)c(=O)n(-c2ccccc2)n1C 89.1 µM [inhibitor, single point]
Oc1cccc(C(=S)N2CCN(Cc3ccccc3)CC2)c1 79.4 µM [inhibitor, partial curve]
Cc1ccc(SCc2cc(=O)c3c(=O)n(-c4ccccc4)[nH]c3[nH]2)cc1 56.2 µM [inhibitor, partial curve]
COc1ccc(CN(C)CC(=O)Nc2ccc(SC(F)F)cc2)cc1OC 44.7 µM [inhibitor, partial curve]
O=C(c1ccc(COc2ccc(Cl)cc2)o1)N1CCN(Cc2ccc3c(c2)OCO3)CC1 25.1 µM [inhibitor, full curve]
CCN(CC)c1ccc(NC(=O)CSc2nc(-c3cccs3)cc(C(F)(F)F)n2)cc1 20 µM [inhibitor, single point]
COc1cc(CO)cc(Br)c1OCC(=O)O 20 µM [inhibitor, full curve]
Cc1ccc(/C=N/NC(=O)Cc2ccc(Cl)cc2)c(O)c1 44.7 µM [inhibitor, partial curve]
O=C1C(Br)=Cc2cccc3cccc1c23 22.4 µM [inhibitor, full curve]
CCOC(=O)c1c(NC(=O)COC(=O)Cn2cnc3ccccc32)sc2c1CCC(C)C2 (stereo not given) 17.8 µM [inhibitor, partial curve]
CCOC(=O)c1c(C)[nH]c(CCC(=O)NCc2ccc(N(C)C)cc2)c1C 56.2 µM [inhibitor, partial curve]
COc1ccc(CNc2oc(-c3ccc(COc4ccccc4C)o3)nc2C#N)cc1 15.8 µM [inhibitor, full curve]
Cc1ccccc1N1CCN(CCN2C(=O)CC(=C3c4ccccc4-c4ccccc43)C2=O)CC1 14.1 µM [inhibitor, full curve]
Cn1c(CCCOc2ccc(Cl)cc2Cl)n[nH]c1=S 44.7 µM [inhibitor, partial curve]
COc1cc(C(C[N+](=O)[O-])c2c(C)cc3ccccn23)ccc1O (stereo not given) 39.8 µM [inhibitor, full curve]
C=CCn1c(CNc2ccccc2)nnc1SCC(=O)N/N=C/c1ccccc1O 89.1 µM [inhibitor, single point]
O=C(O)CC(=O)Nc1cc(Cl)ccc1O 89.1 µM [inhibitor, single point]
CN(CC(=O)Nc1cccc(F)c1)C(=O)CNS(=O)(=O)c1ccc(N(C)C)c([N+](=O)[O-])c1 56.2 µM [inhibitor, partial curve]
